Test results reported in ChEMBL document CHEMBL2150867, “Comparative study of the affinity and metabolism of type I and type II binding quinoline carboxamide analogues by cytochrome P450 3A4” (J Med Chem, 2012).

Assays:
Assay type in all cases: ADME
[1] = substrate: O=C(Nc1ccccc1)c1cc(-c2ccncc2)nc2ccccc12; assay: Metabolic stability of the compound assessed as CYP3A4 NF-14-mediated p-hydroxylation at ring-A
[2] = substrate: Cc1ccc(NC(=O)c2cc(-c3ccccc3)nc3ccccc23)cc1; assay: (§1) Metabolic stability of the compound assessed as CYP3A4 NF-14-mediated aromatic hydroxylation at ring-B
[3] = substrate: O=C(Nc1ccccc1)c1cc(-c2ccccc2)nc2ccccc12; assay: as §1
[4] = substrate: Cc1ccc(NC(=O)c2cc(-c3ccccc3)nc3ccccc23)cc1; assay: (§2) Metabolic stability of the compound assessed as CYP3A4 NF-14-mediated benzylic hydroxylation
[5] = substrate: Cc1ccc(NC(=O)c2cc(-c3ccncc3)nc3ccccc23)cc1; assay: as §2
[6] = substrate: CN(C)c1ccc(NC(=O)c2cc(-c3ccccn3)nc3ccccc23)cc1; assay: (§3) Activity at recombinant CYP3A4 NF-14 expressed in Escherichia coli after 5 mins by HPLC based LC/MS analysis
[7] = substrate: Cc1ccc(NC(=O)c2cc(-c3cnccn3)nc3ccccc23)cc1; assay: as §3
[8] = substrate: CN(C)c1ccc(NC(=O)c2cc(-c3ccncc3)nc3ccccc23)cc1; assay: as §3
[9] = substrate: COc1ccc(NC(=O)c2cc(-c3ccncn3)nc3ccccc23)cc1; assay: as §3
[10] = substrate: Cc1ccc(NC(=O)c2cc(-c3ccncn3)nc3ccccc23)cc1; assay: as §3
[11] = substrate: O=C(Nc1ccccc1)c1cc(-c2ccncc2)nc2ccccc12; assay: as §3
[12] = substrate: O=C(Nc1ccccc1)c1cc(-c2ccncn2)nc2ccccc12; assay: as §3
[13] = substrate: COc1ccc(NC(=O)c2cc(-c3ccccn3)nc3ccccc23)cc1; assay: as §3
[14] = substrate: CN(C)c1ccc(NC(=O)c2cc(-c3cnccn3)nc3ccccc23)cc1; assay: as §3
[15] = substrate: Cc1ccc(NC(=O)c2cc(-c3ccccn3)nc3ccccc23)cc1; assay: as §3
[16] = substrate: Cc1ccc(NC(=O)c2cc(-c3ccccc3)nc3ccccc23)cc1; assay: as §3
[17] = substrate: O=C(Nc1ccccc1)c1cc(-c2cnccn2)nc2ccccc12; assay: as §3
[18] = substrate: COc1ccc(NC(=O)c2cc(-c3cnccn3)nc3ccccc23)cc1; assay: as §3
[19] = substrate: O=C(Nc1ccccc1)c1cc(-c2ccccc2)nc2ccccc12; assay: as §3
[20] = substrate: Cc1ccc(NC(=O)c2cc(-c3ccncc3)nc3ccccc23)cc1; assay: as §3
[21] = substrate: COc1ccc(NC(=O)c2cc(-c3ccncc3)nc3ccccc23)cc1; assay: as §3
[22] = substrate: CN(C)c1ccc(NC(=O)c2cc(-c3ccccc3)nc3ccccc23)cc1; assay: as §3
[23] = substrate: O=C(Nc1ccccc1)c1cc(-c2ccccn2)nc2ccccc12; assay: as §3
[24] = substrate: CN(C)c1ccc(NC(=O)c2cc(-c3ccncn3)nc3ccccc23)cc1; assay: as §3
[25] = substrate: O=C(Nc1ccccc1)c1cc(-c2ccncc2)nc2ccccc12; assay: (§4) Metabolic stability of the compound assessed as CYP3A4 NF-14-mediated aromatic hydroxylation at ring-A
[26] = substrate: O=C(Nc1ccccc1)c1cc(-c2ccccc2)nc2ccccc12; assay: as §4
[27] = substrate: Cc1ccc(NC(=O)c2cc(-c3ccncc3)nc3ccccc23)cc1; assay: as §4
[28] = substrate: COc1ccc(NC(=O)c2cc(-c3ccncc3)nc3ccccc23)cc1; assay: Metabolic stability of the compound assessed as CYP3A4 NF-14-mediated O-demethylation
[29] = substrate: CN(C)c1ccc(NC(=O)c2cc(-c3ccncc3)nc3ccccc23)cc1; assay: Metabolic stability of the compound assessed as CYP3A4 NF-14-mediated N-demethylation

B1: Cytochrome P450 3A4 (Homo sapiens) (protein)
chain: MALIPDLAMETWLLLAVSLVLLYLYGTHSHGLFKKLGIPGPTPLPFLGNILSYHKGFCMFDMECHKKYGKVWGFYDGQQPVLAITDPDMIKTVLVKECYSVFTNRRPFGPVGFMKSAISIAEDEEWKRLRSLLSPTFTSGKLKEMVPIIAQYGDVLVRNLRREAETGKPVTLKDVFGAYSMDVITSTSFGVNIDSLNNPQDPFVENTKKLLRFDFLDPFFLSITVFPFLIPILEVLNICVFPREVTNFLRKSVKRMKESRLEDTQKHRVDFLQLMIDSQNSKETESHKALSDLELVAQSIIFIFAGYETTSSVLSFIMYELATHPDVQQKLQEEIDAVLPNKAPPTYDTVLQMEYLDMVVNETLRLFPIAMRLERVCKKDVEINGMFIPKGVVVMIPSYALHRDPKYWTEPEKFLPERFSKKNKDNIDPYIYTPFGSGPRNCIGMRFALMNMKLALIRVLQNFSFKPCKETQIPLKLSLGGLLQPEKPVVLKVESRDGTVSGA
B1 gave a Km [1] of 1.07 µM, a kcat [1] of 0.13 s⁻¹ and a Km [2] of 14.4 µM. The kcat [2] was 0.0967 s⁻¹, the Km [3] was 8.9 µM and the kcat [3] was 0.0617 s⁻¹. It also gave a Km [4] of 11.3 µM, a kcat [4] of 0.58 s⁻¹ and a Km [5] of 0.77 µM. It also gave a kcat [5] of 0.1 s⁻¹, a Km [6] of 10.5 µM and a kcat [6] of 0.175 s⁻¹. It also gave a Km [7] of 8 µM, a kcat [7] of 0.433 s⁻¹ and a Km [8] of 1.03 µM. The kcat [8] was 0.218 s⁻¹, the Km [9] was 2.6 µM and the kcat [9] was 0.145 s⁻¹. For the same protein, the Km [10] was 3.2 µM, the kcat [10] was 0.213 s⁻¹ and the Km [11] was 1.13 µM. The kcat [11] was 0.228 s⁻¹, the Km [12] was 3.3 µM and the kcat [12] was 0.177 s⁻¹. For the same protein, the Km [13] was 2.6 µM, the kcat [13] was 0.095 s⁻¹ and the Km [14] was 11.1 µM. It also gave a kcat [14] of 0.513 s⁻¹, a Km [15] of 13 µM and a kcat [15] of 0.623 s⁻¹. It also gave a Km [16] of 12 µM, a kcat [16] of 0.683 s⁻¹ and a Km [17] of 3.6 µM. For the same protein, the kcat [17] was 0.148 s⁻¹, the Km [18] was 1.6 µM and the kcat [18] was 0.0893 s⁻¹. For the same protein, the Km [19] was 6.5 µM, the kcat [19] was 0.138 s⁻¹ and the Km [20] was 0.76 µM. It also gave a kcat [20] of 0.123 s⁻¹, a Km [21] of 0.7 µM and a Km [22] of 2.9 µM. It also gave a kcat [22] of 0.465 s⁻¹, a Km [23] of 7.1 µM and a kcat [23] of 0.158 s⁻¹. It also gave a Km [24] of 2.8 µM, a kcat [24] of 0.16 s⁻¹ and a Km [25] of 1.24 µM. For the same protein, the kcat [25] was 0.0983 s⁻¹, the Km [26] was 5.3 µM and the kcat [26] was 0.0783 s⁻¹. For the same protein, the Km [27] was 0.72 µM, the kcat [27] was 0.0228 s⁻¹ and the Km [28] was 0.8 µM. For the same protein, the kcat [28] was 0.03 s⁻¹ and the Km [29] was 1.3 µM.
